Measured values taken from the supplement of paper PMC8728848.
The other results are listed elsewhere or left out.

Assays:
Assay in all cases: glycan array binding signal (z-score within array); higher = stronger binding
Settings in all cases: glycan notation: IUPAC condensed, linker removed
[1] = biological target: Gal(a1-3)Gal(b1-4)GlcNAc(b1-2)Man
Method in brief: (§1)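 From the Consortium for Functional Glycomics database, 3228 arrays were curated, keeping only those whose protein sequence was available. Binding is given as a within-array Z-score averaged across arrays sharing a protein sequence and across linkers. Negative Z-scores can be read as non-binding.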

[2] = biological target: Gal(a1-3)Gal(b1-4)GlcNAc(b1-2)Man(a1-3)[Gal(a1-3)Gal(b1-4)GlcNAc(b1-2)Man(a1-6)]Man(b1-4)GlcNAc(b1-4)GlcNAc
Method in brief: as §1

[3] = biological target: Gal(a1-3)Gal(b1-4)GlcNAc(b1-3)GalNAc
Method in brief: as §1

[4] = biological target: Gal(a1-3)Gal(b1-4)GlcNAc(b1-6)GalNAc
Method in brief: as §1

[5] = biological target: Gal(a1-3)Gal(b1-4)[Fuc(a1-3)]GlcNAc
Method in brief: as §1

[6] = biological target: Gal(a1-3)Gal(b1-4)[Fuc(a1-3)]GlcNAc(b1-2)Man(a1-3)[Gal(a1-3)Gal(b1-4)[Fuc(a1-3)]GlcNAc(b1-2)Man(a1-6)]Man(b1-4)GlcNAc(b1-4)GlcNAc
Method in brief: as §1

Gal(a1-3)GalNAc = biological target: Gal(a1-3)GalNAc
Method in brief: as §1

[7] = biological target: Gal(a1-3)[Gal(a1-4)]Gal(b1-4)GlcNAc
Method in brief: as §1

[8] = biological target: Gal(a1-4)Gal(b1-3)GlcNAc(b1-2)Man(a1-3)[Gal(a1-4)Gal(b1-3)GlcNAc(b1-2)Man(a1-6)]Man(b1-4)GlcNAc(b1-4)GlcNAc
Method in brief: as §1

Gal(a1-4)Gal(b1-4)Glc = biological target: Gal(a1-4)Gal(b1-4)Glc
Method in brief: as §1

Gal(a1-4)Gal(b1-4)GlcNAc = biological target: Gal(a1-4)Gal(b1-4)GlcNAc
Method in brief: as §1

[9] = biological target: Gal(a1-4)Gal(b1-4)GlcNAc(b1-2)Man(a1-3)[Gal(a1-4)Gal(b1-4)GlcNAc(b1-2)Man(a1-6)]Man(b1-4)GlcNAc(b1-4)GlcNAc
Method in brief: as §1

[10] = biological target: Gal(a1-4)Gal(b1-4)GlcNAc(b1-3)Gal(b1-4)Glc
Method in brief: as §1

Gal(a1-4)GlcNAc = biological target: Gal(a1-4)GlcNAc
Method in brief: as §1

Gal(a1-6)Glc = biological target: Gal(a1-6)Glc
Method in brief: as §1

Gal(b1-2)Gal = biological target: Gal(b1-2)Gal
Method in brief: as §1

Gal(b1-3)Gal = biological target: Gal(b1-3)Gal
Method in brief: as §1

Gal(b1-3)Gal(b1-4)GlcNAc = biological target: Gal(b1-3)Gal(b1-4)GlcNAc
Method in brief: as §1

Gal(b1-3)GalNAc = biological target: Gal(b1-3)GalNAc
Method in brief: as §1

[11] = biological target: Gal(b1-3)GalNAc(a1-3)[Fuc(a1-2)]Gal(b1-4)Glc
Method in brief: as §1

[12] = biological target: Gal(b1-3)GalNAc(a1-3)[Fuc(a1-2)]Gal(b1-4)GlcNAc
Method in brief: as §1

Gal(b1-3)GalNAc(b1-3)Gal = biological target: Gal(b1-3)GalNAc(b1-3)Gal
Method in brief: as §1

[13] = biological target: Gal(b1-3)GalNAc(b1-3)Gal(a1-4)Gal(b1-4)Glc
Method in brief: as §1

[14] = biological target: Gal(b1-3)GalNAc(b1-4)Gal(b1-4)Glc
Method in brief: as §1

[15] = biological target: Gal(b1-3)GalNAc(b1-4)[Neu5Ac(a2-3)]Gal(b1-4)Glc
Method in brief: as §1

Gal(b1-3)GlcNAc = biological target: Gal(b1-3)GlcNAc
Method in brief: as §1

[16] = biological target: Gal(b1-3)GlcNAc(a1-3)Gal(b1-4)GlcNAc
Method in brief: as §1

[17] = biological target: Gal(b1-3)GlcNAc(a1-6)Gal(b1-4)GlcNAc
Method in brief: as §1

Gal(b1-3)GlcNAc(b1-2)Man = biological target: Gal(b1-3)GlcNAc(b1-2)Man
Method in brief: as §1

[18] = biological target: Gal(b1-3)GlcNAc(b1-2)Man(a1-3)[Gal(b1-3)GlcNAc(b1-2)Man(a1-6)]Man(b1-4)GlcNAc(b1-4)GlcNAc
Method in brief: as §1

[19] = biological target: Gal(b1-3)GlcNAc(b1-2)Man(a1-3)[Gal(b1-3)GlcNAc(b1-2)Man(a1-6)]Man(b1-4)GlcNAc(b1-4)[Fuc(a1-6)]GlcNAc
Method in brief: as §1

[20] = biological target: Gal(b1-3)GlcNAc(b1-2)Man(a1-3)[GlcNAc(b1-4)][Gal(b1-3)GlcNAc(b1-2)Man(a1-6)]Man(b1-4)GlcNAc(b1-4)GlcNAc
Method in brief: as §1

[21] = biological target: Gal(b1-3)GlcNAc(b1-2)[Gal(b1-3)GlcNAc(b1-6)]Man(a1-6)[Gal(b1-3)GlcNAc(b1-2)Man(a1-3)]Man(b1-4)GlcNAc(b1-4)GlcNAc
Method in brief: as §1

[22] = biological target: Gal(b1-3)GlcNAc(b1-3)Gal(b1-3)GlcNAc
Method in brief: as §1

[23] = biological target: Gal(b1-3)GlcNAc(b1-3)Gal(b1-4)Glc
Method in brief: as §1

[24] = biological target: Gal(b1-3)GlcNAc(b1-3)Gal(b1-4)GlcNAc
Method in brief: as §1

[25] = biological target: Gal(b1-3)GlcNAc(b1-3)Gal(b1-4)GlcNAc(b1-2)Man(a1-3)[Gal(b1-3)GlcNAc(b1-3)Gal(b1-4)GlcNAc(b1-2)Man(a1-6)]Man(b1-4)GlcNAc(b1-4)GlcNAc
Method in brief: as §1

[26] = biological target: Gal(b1-3)GlcNAc(b1-3)Gal(b1-4)GlcNAc(b1-2)[Gal(b1-3)GlcNAc(b1-3)Gal(b1-4)GlcNAc(b1-6)]Man(a1-6)[Gal(b1-3)GlcNAc(b1-3)Gal(b1-4)GlcNAc(b1-2)Man(a1-3)]Man(b1-4)GlcNAc(b1-4)[Fuc(a1-6)]GlcNAc
Method in brief: as §1

[27] = biological target: Gal(b1-3)GlcNAc(b1-3)Gal(b1-4)GlcNAc(b1-3)Gal(b1-4)GlcNAc(b1-2)[Gal(b1-3)GlcNAc(b1-3)Gal(b1-4)GlcNAc(b1-3)Gal(b1-4)GlcNAc(b1-6)]Man(a1-6)[Gal(b1-3)GlcNAc(b1-3)Gal(b1-4)GlcNAc(b1-3)Gal(b1-4)GlcNAc(b1-2)Man(a1-3)]Man(b1-4)GlcNAc(b1-4)[Fuc(a1-6)]GlcNAc
Method in brief: as §1

[28] = biological target: Gal(b1-3)GlcNAc(b1-3)Gal(b1-4)GlcNAc(b1-6)[Gal(b1-3)GlcNAc(b1-3)]Gal(b1-4)Glc
Method in brief: as §1

[29] = biological target: Gal(b1-3)GlcNAc(b1-3)Gal(b1-4)[Fuc(a1-3)]GlcNAc
Method in brief: as §1

[30] = biological target: Gal(b1-3)GlcNAc(b1-3)Gal(b1-4)[Fuc(a1-3)]GlcNAc(b1-6)[Gal(b1-3)GlcNAc(b1-3)]Gal(b1-4)Glc
Method in brief: as §1

[31] = biological target: Gal(b1-3)GlcNAc(b1-3)GalNAc
Method in brief: as §1

[32] = biological target: Gal(b1-3)GlcNAc(b1-6)Gal(b1-4)GlcNAc
Method in brief: as §1

[33] = biological target: Gal(b1-3)GlcNAc(b1-6)GalNAc
Method in brief: as §1

B1: Clone730PsrP (Streptococcus pneumoniae) (protein)
chain: MDHHHHHHHHHHASENLYFQGAMVVGSQTAAATEATAKKVEEDRKKPASDYVASVTNVNLQSYAKRRKRSVDSIEQLLASIKNAAVFSGNTIVNGAPAINASLNIAKSETKVYTGEGVDSVYRVPIYYKLKVTNDGSKLTFTYTVTYVNPKTNDLGNISSMRPGYSIYNSGTSTQTMLTLGSDLGKPSGVKNYITDKNGRQVLSYNTSTMTTQGSGYTWGNGAQMNGFFAKKGYGLTSSWTVPITGTDTSFTFTPYAARTDRIGINYFNGGGKVVESSTT
glycan array binding signal (z-score) [1]: -0.011
glycan array binding signal (z-score) [2]: -0.431
glycan array binding signal (z-score) [3]: -0.281
glycan array binding signal (z-score) [4]: -0.459
glycan array binding signal (z-score) [5]: -0.455
glycan array binding signal (z-score) [6]: 1.64
glycan array binding signal (z-score) (Gal(a1-3)GalNAc): 0.033
glycan array binding signal (z-score) [7]: 0.222
glycan array binding signal (z-score) [8]: -0.418
glycan array binding signal (z-score) (Gal(a1-4)Gal(b1-4)Glc): 1.27
glycan array binding signal (z-score) (Gal(a1-4)Gal(b1-4)GlcNAc): 1.2
glycan array binding signal (z-score) [9]: 0.234
glycan array binding signal (z-score) [10]: -0.505
glycan array binding signal (z-score) (Gal(a1-4)GlcNAc): -0.223
glycan array binding signal (z-score) (Gal(a1-6)Glc): -0.456
glycan array binding signal (z-score) (Gal(b1-2)Gal): 0.055
glycan array binding signal (z-score) (Gal(b1-3)Gal): -0.487
glycan array binding signal (z-score) (Gal(b1-3)Gal(b1-4)GlcNAc): -0.231
glycan array binding signal (z-score) (Gal(b1-3)GalNAc): -0.338
glycan array binding signal (z-score) [11]: 0.256
glycan array binding signal (z-score) [12]: -0.265
glycan array binding signal (z-score) (Gal(b1-3)GalNAc(b1-3)Gal): 1.01
glycan array binding signal (z-score) [13]: 0.583
glycan array binding signal (z-score) [14]: 0.504
glycan array binding signal (z-score) [15]: 2.82
glycan array binding signal (z-score) (Gal(b1-3)GlcNAc): 0.33
glycan array binding signal (z-score) [16]: -0.595
glycan array binding signal (z-score) [17]: 0.116
glycan array binding signal (z-score) (Gal(b1-3)GlcNAc(b1-2)Man): 0.272
glycan array binding signal (z-score) [18]: -0.23
glycan array binding signal (z-score) [19]: -0.285
glycan array binding signal (z-score) [20]: -0.155
glycan array binding signal (z-score) [21]: 19.3
glycan array binding signal (z-score) [22]: 0.161
glycan array binding signal (z-score) [23]: -0.155
glycan array binding signal (z-score) [24]: -0.437
glycan array binding signal (z-score) [25]: -0.281
glycan array binding signal (z-score) [26]: -0.352
glycan array binding signal (z-score) [27]: -0.109
glycan array binding signal (z-score) [28]: -0.26
glycan array binding signal (z-score) [29]: -0.476
glycan array binding signal (z-score) [30]: -0.518
glycan array binding signal (z-score) [31]: -0.617
glycan array binding signal (z-score) [32]: -0.039
glycan array binding signal (z-score) [33]: -0.605
